Test results from article PMC6830105.
Results are given in words; binding and its absence hold for the method and conditions named. Binding seen in cells or lysates may run through a third protein. Some binding calls cover weakened binding; strength is not graded here.

By UniProt entry, the sequences of proteins in these tests, tags left out. Where a name states a change or a piece, a line headed by the entry shows the natural chain unless it says otherwise. Residues count along the entry.
UniProt P14618: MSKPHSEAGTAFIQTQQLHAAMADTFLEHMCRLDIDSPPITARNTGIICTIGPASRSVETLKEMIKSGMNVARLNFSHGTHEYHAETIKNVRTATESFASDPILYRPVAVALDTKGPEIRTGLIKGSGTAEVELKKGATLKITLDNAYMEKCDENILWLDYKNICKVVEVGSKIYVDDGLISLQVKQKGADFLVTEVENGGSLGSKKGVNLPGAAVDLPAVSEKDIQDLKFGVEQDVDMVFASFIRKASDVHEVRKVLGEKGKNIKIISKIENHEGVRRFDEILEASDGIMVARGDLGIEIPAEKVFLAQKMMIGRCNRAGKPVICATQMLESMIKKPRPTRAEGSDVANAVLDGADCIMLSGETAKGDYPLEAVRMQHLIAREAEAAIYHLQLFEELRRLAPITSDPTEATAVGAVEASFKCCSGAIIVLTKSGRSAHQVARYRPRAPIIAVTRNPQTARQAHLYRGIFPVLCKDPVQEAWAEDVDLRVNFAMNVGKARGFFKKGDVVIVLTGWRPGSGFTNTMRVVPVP
GST-PKM2 N-terminal domain, amino acids 1-116: residues 1-116 of P14618
GST-PKM2 amino acids 116-218: residues 116-218 of P14618
GST-PKM2 amino acids 218-389: residues 218-389 of P14618
GST-PKM2 amino acids 389-531: residues 389-531 of P14618
UniProt P27449: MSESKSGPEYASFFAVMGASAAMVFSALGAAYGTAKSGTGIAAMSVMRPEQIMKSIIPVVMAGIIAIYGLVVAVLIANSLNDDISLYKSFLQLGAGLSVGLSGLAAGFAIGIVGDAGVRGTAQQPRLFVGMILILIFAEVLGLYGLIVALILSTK

How the values were obtained:
Flag-PKM2 mutant R399E = Flag-PKM2 mutant R399E (UniProt P14618); test: co-IP; TE8 cells transfected with Flag-PKM2 or Flag-PKM2 R399E; reciprocal IP, anti-Flag IP also under high (25 mM) or low (0.5 mM) glucose; precleared lysates with protein G Sepharose and antibody overnight at 4 °C; Western blot
Flag-PKM2 (wild type) = Flag-PKM2 (wild type) (UniProt P14618); test: as above
[1] = biological target: pyruvate kinase isoform M2 (PKM2), endogenous in TE8 cells (human (endogenous in TE8)) (UniProt P14618); test: co-IP; endogenous proteins of TE8 cells; IP with anti-ATP6V0C or anti-PKM2, high or low glucose; precleared lysates with protein G Sepharose overnight at 4 °C; Western blot
[2] = biological target: GST-PKM2 amino acids 218-389 (UniProt P14618); test: pull-down; cell-free GST pull-down; purified GST-PKM2 fusion proteins (20 μg) on GST-agarose in STE buffer, overnight at 4 °C, eluted with 50 mM reduced glutathione; Western blot
[3] = biological target: GST-PKM2 amino acids 116-218 (UniProt P14618); test: as above
[4] = biological target: GST-PKM2 amino acids 389-531 (UniProt P14618); test: as above
[5] = biological target: GST-PKM2 N-terminal domain, amino acids 1-116 (UniProt P14618); test: as above

Substance	binding (Flag-PKM2 mutant R399E)	binding (Flag-PKM2 (wild type))	binding [1]	binding [2]	binding [3]	binding [4]	binding [5]
vacuolar H+-ATPase subunit V0C (ATP6V0C), endogenous in TE8 cells (from UniProt P27449 1-155)	binds	binds	binds	–	–	–	–
ATP6V0C as used in the cell-free GST pull-down (from UniProt P27449 1-155)	–	–	–	no binding	no binding	no binding	binds
